In the supplement of paper PMC12632987:
In all, about 2,300 sequences were measured (“median log2 fold change of GCK-ALFA target abundance (FLAG IP / Myc IP barcode read proportion)”: median about 0.095, lowest 2% from about -0.47 on). The list shows a part of the results.

B1: LC3A_3_1421 (protein)
chain: MEARVAAALAALAAAGWSQETLDALRELVAELLARGAEAEAERALELVLANKDLSSEDLLEVLEEALAALREPGVSPEEVVARLEELLRIARAEQEIEEL
B2: LC3A_3_1659 (protein)
chain: MEALIAETLAYLAAQGKSPEVLAATRAALTALVERGYEEAARVFAELLRELAGLSDEVLLDLAREVLELVETSDISEEEMTERIRELARVARLEEEIEEL
B3: LC3A_3_1371 (protein)
chain: MEEEKEETLEFLREEGKSEETIEAVRRTLEALIEKGYEEAAKTFMELLKEMKDLSDEILLAFAEDVLRAVTEEDLSEEELIEFIKNEAKVARNDEEIIEL
B4: LC3A_28_757 (protein)
chain: MDVKEEVEKAIEKAKEAKAKGEEAVIEIKVPAGATQEDVDIVIEGLEEIAEINKDMKRTTIVIDVDAGVSQEHIDKLIDKGEEIEKKYPNITVIFALDED
B5: LC3A_3_1489 (protein)
chain: KEELLEEMEKVLEELGVSEETRERILEDVKKLLELGYEETVKTLIELFKEGKDMSEKQILAVTSITRDKAEEEKLSEEELVEEAKRIYENVKEIEELEEE
B6: LC3A_132_251 (protein)
chain: SEELLEEALEELKKLLEEVVKALQAGEDYLPLIKKLDELAEEHAEKLSLEETEELVEESKKYADELFAERLDPNDEEAIRARDIIDMLLDGVLIEKELRS
B7: LC3A_62_2056 (protein)
chain: MVLAEVTVDVLTKDEEAARKVAETIRRELARLRERHPEWEIEVEEEIDGNFLLVRITVRVPTETDPEEVRDALLDTIDRVLEENADLIKGALISIDVTEL
B8: LC3A_132_325 (protein)
chain: SEEELEKLRKEINKLIEEAKENIDNLEKVKELVEKIKKLLKEAEEKISPEDAAKLFNEAAEKLDEVSRKALEAGKEEVALELDGLAVEAAAKAIELEEKI
B9: LC3A_28_743 (protein)
chain: SALDAELARALAEAREAAARGESAVITITIPGTADQADIDKVMEALEEIAEILKDVPDQAIIIDVDGKLDQDLLTKLADKADEIEEKYPNVTVIIALDEE
B10: LC3A_28_1107 (protein)
chain: SSVDEENAKALAEAEKAAAAGEPAVITITVKSTDTQEDIDKKIETMEKIAEILKDVKDAAIIIDLDGEIPQEYLDKLADKGEEIEKKYPNITVIIALDEE
B11: LC3A_147_494 (protein)
chain: AVIEIDILVKNEETAEEIKEEIEKIVEELRKKGYEVELEIELEKIDENTYYLRVTITIKAPTPEEEKAAANEVLKRIEEILEKHKDDVLAALINVEFEEE
B12: LC3A_132_243 (protein)
chain: SKEKLEKLRKELEEKLKELKENIDDLEKVKELVKEIEELLEEAEKELSPEDALELHEEVADRLYEIAEEAEKAGKKEVARIVENAAMYADGRAIEQELKL
B13: LC3A_3_1679 (protein)
chain: MEELVEEVLKLLKENGFDEETIEAAKKLLEALKKRGYENAIKTLLEELKKLKDVPSELVKDMFKELLKYVTEKNPTEEEVVKLIKEEAKTLLNDLEIEEL
B14: LC3A_141_374 (protein)
chain: TKKKIKKELKNADEDEVDKLAQEVADEVEKFIKENKGKEVKVKLKVTVTDLETGETKKLEIEETVTEENAEMVTEGFVIEIMSLVLDKKVNLEIEVTLEV
B15: LC3A_free_46_2343 (protein)
chain: MKLEILIDILADTEEKAKKAVEELVKKFKELAKKYNAKLEIKVEIEKLEDGSYYARIEATFSGVTKEQAEEIENEIIDKVDEISKKYGVAAIVSSEIIEE
B16: LC3A_13_339 (protein)
chain: MVHIEATGEEESLEKAIKEVKESKAKEVKVTLTVSSEEDVEKVVAAAKELIDIAEEQGAKLEITIVGKRDHVLEAALEIGSYIFEHIDKVDVTLSLEVTP
B17: LC3A_45_1926 (protein)
chain: MWEATVDILVPRELAERALAETRRLADELEARHGPALRVDRAALDESYAASRDEEDVYLRVRIFHPDREAALAAADELSDRLDAALGGKASSIISLRELP
B18: LC3A_free_46_2338 (protein)
chain: YLVEVTVDTLAAPKEKIEEFIEEFERKAREIAEELGGEIEIEVEIEKEENGLYSAIITVKITVETKEKAEEAAQKLLDAVDELDEKYGIVGLISVSIEKE
B19: LC3A_28_651 (protein)
chain: SATRAAIEAALAEAQAALAAGEPTVITLTITGDATEADIERAIAALEEIAEIAEKLGGSTIIVDLEAGVAKEHQDRLIDKGEELEERYPKVTVIFALAEE
B20: LC3A_3_1359 (protein)
chain: MEELRAETLAFLRAQGKSEETLEAVARTLDALAARGYEAAAREFVALLRELADLPDELLLAFAEDVLEAVTKKDLSEEELIAFIREEAAVARHEAEIEEL
B21: LC3A_3_1480 (protein)
chain: MDERLAATLAALRAAGASDETLAAVRETVEALRAKGYEKAAETFLELMERHLGLPDETLLAIAELSLELVRTEDLSEEELSARIREIAEDVAGIEELDEE
B22: LC3A_free_8_2520 (protein)
chain: TSEKFTKKAVEILDKLEEEVVAYLKSKGASELEILEAELLIGSIIAEVISLKDKSLEDILKSIRDGLEDLVKELSKYKEEIKELADKALEEIEKAAEELK
B23: LC3A_28_879 (protein)
chain: MTVEEALAAARAEVAAAVAAGEEAHVVVEITEPITPEEAKALVEGLRAIVEEGASLPALSITISLSRKVSQEARDIIADGAEEIEARYPHVTVIIALEEE
B24: LC3A_free_39_2227 (protein)
chain: SKEEVEKLIKELAEKAGLDYEEVKKKIEEIKEIGGLSDEQIKELIKALLKAVEAGADAKEILEEAVKLTKELKAQGKSPEEIFEAILELIEDYRNLVPLD
B25: LC3A_3_1805 (protein)
chain: ADERIEALLEELRAAGASEETIAAAREVLTLLRERGYLEALETLIEGLRELLDAPDELRLDLLEDVLEYLETNDASEEEVTEFIKEEIRLARSESEIEEL
B26: LC3A_free_46_2424 (protein)
chain: VVVEIDIDLLHEDEEVLKKAVEEIVKAIKEIAEKHGAEVKIEVEFSKDEDGYYFARIKATITAEDLETAQEIADEITDAIDEIAEKYDVSYIISVEIIEE
B27: LC3A_28_1197 (protein)
chain: SEADKVIKEIEKQAEKALKEGDGAVIVVKISKTLSKEGVEKILETIKKEAEKLKDLERVSIIIEVESGVSQEDINLIADTGEEIEEKYPNVTVIIALDEE
B28: LC3A_free_26_2152 (protein)
chain: DIFIDLVELDKAIELLEKALKLLEEDKNASEELKKLVKEALKKAEEMTLESLEEAKKLVEEALKLLEKDKSLSEEKKKELKKLLEEALKLLEKNIEIAKS
B29: LC3A_28_1321 (protein)
chain: SHVEEELAKAKAEAEEQAAQGEDITITVKVSGSTTLEEALALMEGLREIVEKYAPTRKVHIIVDLDGGVKQEVIDAIAEKAEEIEKEFPNATVILALDEE

molecular target: MAP1LC3A, Q9H492; test: median log2 fold change of GCK-ALFA target abundance (FLAG IP / Myc IP barcode read proportion) (log2 ratio); each designed protein is fused to an ALFA-tag nanobody in HEK293 cells to bring the named protein to FLAG-tagged glucokinase (GCK); Myc marks an untargeted standard; higher = target protein stabilised (more abundant); settings: target protein: 3xFLAG-MCP-GCK-ALFA reporter; HEK293 landing pad (RPLP)
How it was run: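 Binders fused to an ALFA nanobody were recombined as a library into HEK293 landing-pad cells, which were induced with 2 μg mL^−1 doxycycline and then transfected to express a FLAG-tagged target and a Myc-tagged standard. After 48 h, circular RNA barcodes recovered by anti-FLAG and anti-Myc immunoprecipitation of lysates were reverse transcribed, amplified and sequenced. Each binder's target abundance is the median log2 ratio of FLAG to Myc barcode read proportions, from barcodes present at ≥10^−7 in both replicates, binders carrying ≥3 barcodes per replicate, a 10^−6 pseudocount and pooled replicates.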

| Binder | median log2 fold change |
| --- | --- |
| B1 | 0.254 |
| B2 | 0.247 |
| B3 | 0.373 |
| B4 | -0.293 |
| B5 | 0.312 |
| B6 | 0.0467 |
| B7 | 0.00793 |
| B8 | 0.169 |
| B9 | 0.0608 |
| B10 | 0.154 |
| B11 | -0.311 |
| B12 | 0.1 |
| B13 | 0.409 |
| B14 | 0.0612 |
| B15 | -0.426 |
| B16 | 0.154 |
| B17 | 0.177 |
| B18 | -0.0859 |
| B19 | -0.329 |
| B20 | 0.287 |
| B21 | 0.165 |
| B22 | 0.13 |
| B23 | 0.364 |
| B24 | -0.251 |
| B25 | -0.0069 |
| B26 | 0.00266 |
| B27 | 0.258 |
| B28 | 0.192 |
| B29 | 0.122 |
